The whole screen tested about 310,000 compounds, of which about 14,000 (4.5%) showed an effect of 50% or more. Effects have a minus sign here. Some of the results follow.
biological target: human ether-à-go-go-related gene (hERG) potassium channel (human, UniProt Q12809); assay: primary screen, population patch clamp on CHO cells stably expressing hERG
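Also: peak tail current of the secondary pulse compared with the same well before compound.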

Chain of human ether-à-go-go-related gene (hERG) potassium channel (Q12809 whole entry, looked up): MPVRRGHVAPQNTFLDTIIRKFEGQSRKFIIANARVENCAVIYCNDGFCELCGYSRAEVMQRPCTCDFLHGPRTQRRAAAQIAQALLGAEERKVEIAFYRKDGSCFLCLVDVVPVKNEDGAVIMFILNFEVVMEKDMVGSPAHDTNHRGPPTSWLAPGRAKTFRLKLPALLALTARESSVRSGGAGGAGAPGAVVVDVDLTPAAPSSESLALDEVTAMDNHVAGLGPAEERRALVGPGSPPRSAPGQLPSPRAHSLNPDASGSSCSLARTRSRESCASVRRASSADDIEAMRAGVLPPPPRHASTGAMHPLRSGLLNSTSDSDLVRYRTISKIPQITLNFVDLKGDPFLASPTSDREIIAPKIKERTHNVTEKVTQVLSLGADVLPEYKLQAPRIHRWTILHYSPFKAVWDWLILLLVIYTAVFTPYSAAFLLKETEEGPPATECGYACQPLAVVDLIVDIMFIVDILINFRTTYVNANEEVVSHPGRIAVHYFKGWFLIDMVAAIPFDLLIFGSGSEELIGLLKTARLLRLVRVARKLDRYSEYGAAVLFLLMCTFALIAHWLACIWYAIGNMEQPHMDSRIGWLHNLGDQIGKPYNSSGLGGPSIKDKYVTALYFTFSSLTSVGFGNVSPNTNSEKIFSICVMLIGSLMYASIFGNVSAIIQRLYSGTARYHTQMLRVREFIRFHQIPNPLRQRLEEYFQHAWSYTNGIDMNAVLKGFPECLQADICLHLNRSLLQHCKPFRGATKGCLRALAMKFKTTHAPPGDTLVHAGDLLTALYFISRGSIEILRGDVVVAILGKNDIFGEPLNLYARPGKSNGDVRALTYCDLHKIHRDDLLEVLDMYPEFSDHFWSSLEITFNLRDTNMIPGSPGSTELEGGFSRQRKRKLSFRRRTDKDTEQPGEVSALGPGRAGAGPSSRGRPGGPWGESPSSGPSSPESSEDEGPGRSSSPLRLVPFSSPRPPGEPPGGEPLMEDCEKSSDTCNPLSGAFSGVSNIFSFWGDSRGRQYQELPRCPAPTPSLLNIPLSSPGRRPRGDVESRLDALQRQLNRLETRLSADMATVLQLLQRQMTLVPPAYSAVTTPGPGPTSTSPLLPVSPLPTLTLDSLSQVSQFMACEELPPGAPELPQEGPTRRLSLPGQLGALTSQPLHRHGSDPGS

Compared with `Cc1cccc(NS(=O)(=O)c2c(C(=O)N3CCOCC3)c(C)n(C)c2C)c1C`, `O=C(c1ccc(Cl)c(S(=O)(=O)N2CCOCC2)c1)N1CCN(Cc2ccccc2)CC1` is lower in “hERG current change (%, negative = inhibition) at 10uM” value: 20% for the first, -25.3% for the second.

First: CC(C)NC(=O)CCc1nc2cccnc2n1-c1ccccc1
Second: CN(C)c1ncccc1-c1nc2ccccc2s1
The “hERG current change (%, negative = inhibition) at 10uM” value of the first is lower: -9.04% for the first, 16.4% for the second.

Going from `C=CCNC(=S)Nc1cccc(N)c1` to `N#Cc1ccc(NC(=O)CCNC(=O)c2ccco2)cc1Cl`, the “hERG current change (%, negative = inhibition) at 10uM” value rises from -1.06% to 1.68%.

Going from `CC(=O)Nc1ccc(NC(=O)CCCSc2nc3ccccc3[nH]2)cc1` to `O=C(O)c1ccc(Nc2nc3ccc(Cl)cc3[nH]2)cc1`, the “hERG current change (%, negative = inhibition) at 10uM” value rises from -2.05% to 17%.

Going from `Cc1ccc(Oc2nc(CN3CCOCC3)nc3sc4c(c23)CCC(C)C4)cc1` (stereo not drawn) to `OCCC1CN(Cc2cnc(-c3cccc4ccccc34)nc2)CCN1C1CCCCC1` (stereo not drawn), the “hERG current change (%, negative = inhibition) at 10uM” value falls from -0.246% to -13.2%.

First: COc1ccc(/C=N/c2oc(-c3ccccc3)cc2C#N)cc1OC
Second: Cc1nn(-c2nc3ccccc3[nH]2)c(N)c1-c1ccccc1
The “hERG current change (%, negative = inhibition) at 10uM” value of the first is lower: -3.51% for the first, 0.295% for the second.

Compared with `Cc1cc(=O)oc2cc(OC(C)C(=O)NC3(C#N)CCCCC3)ccc12` (stereo not drawn), `CN(C1CCCCC1)S(=O)(=O)c1ccc(SCC(=O)NC(C)(C)C)nc1` is higher in “hERG current change (%, negative = inhibition) at 10uM” value: -13.9% for the first, 22.2% for the second.

Compared with `CC1CN(C2CCCCC2)c2nc3c(c(=O)n(C)c(=O)n3C)n2C1` (stereo not drawn), `CCOc1ccc(NC(=S)N2CCN(CCN3C(=O)c4cccc5cccc(c45)C3=O)CC2)cc1` is higher in “hERG current change (%, negative = inhibition) at 10uM” value: -3% for the first, 9.17% for the second.

Going from `COc1ccc(C(Nc2ccccn2)c2c(NC(=O)c3ccco3)sc(C)c2C)cc1` (stereo not drawn) to `CCOC(=O)C(=Cc1ccc(OCc2ccc([N+](=O)[O-])cc2)c(OC)c1)C(=O)OCC`, the “hERG current change (%, negative = inhibition) at 10uM” value falls from -8.28% to -16.4%.

Going from `O=C(CNC(=O)C(c1ccccc1)c1ccccc1)OCC(=O)c1cccs1` to `Cc1cc([N+](=O)[O-])ccc1NCc1ccccc1[N+](=O)[O-].O=C(O)C(=O)O`, the “hERG current change (%, negative = inhibition) at 10uM” value rises from -3.52% to 14.1%.

First: O=C(c1ccc(F)cc1)C1CCN(C(=O)Nc2ccccc2Cl)CC1
Second: Cc1nc2c(Cl)cccc2[nH]1
The “hERG current change (%, negative = inhibition) at 10uM” value of the first is lower: -23% for the first, 7.09% for the second.

Going from `CC(=O)N(C)c1ccc(N=Cc2cc3c(cc2[N+](=O)[O-])OCO3)cc1` to `CC(C)(C)CC(C)(C)NCC(O)COc1c(F)cc(Br)cc1F.Cl` (stereo not drawn), the “hERG current change (%, negative = inhibition) at 10uM” value falls from 11.1% to -40.3%.

Reference: article PMC4336329 (PLoS ONE, 2015)
